From PubChem BioAssay AID330 (DTP/NCI, 2004)
Inconclusive results and toxic doses are left out. A number of entries come with more than one value. They are shown here; other results are not. An entry can have further records. Values given together differ for a reason that is not stated; some may be repeats, others may stem from another dose, organism or construct than stated. A tag in brackets gives the origin of a value. The letters are not those of the source and start again with each entry.

Test system: P388 leukemia ip, CD2F1 mice, survival T/C
Experiment: NCI In Vivo Anticancer Drug Screen. Data for tumor model P388 Leukemia (intraperitoneal) in CD2F1 (CDF1) mice
Details: endpoint: median survival time, higher = longer survival

## CC(C)CC(NC(=O)C(N)Cc1ccc(N(CCCl)CCCl)cc1)C(=O)O (centres undefined)
dose: 5.6 mg/kg/injection, schedule: Q04DX003 (ip), vehicle: saline with Tween-80
  T/C: 171 % of control, 193 % of control [sample A] and 123 % of control [sample B]

## COCC1(COC)CCN(C2CC(O[C@H]3C[C@](O)(C(C)=O)Cc4c(O)c5c(c(O)c43)C(=O)c3c(OC)cccc3C5=O)OC(C)C2O)CC1 (some centres undefined)
dose: 6.25 mg/kg/injection, schedule: Q04DX003 (ip), vehicle: water
  T/C: 124 % of control and 168 % of control

## CCN(CC)C1CC(O[C@H]2C[C@](O)(C(C)=O)Cc3c(O)c4c(c(O)c32)C(=O)c2c(OC)cccc2C4=O)OC(C)C1O (some centres undefined)
dose: 12.0 mg/kg/injection, schedule: Q04DX003 (ip), vehicle: water
  T/C: 101 % of control and 166 % of control

## C1OC1C1CO1 (centres undefined)
dose: 20.0 mg/kg/injection, schedule: Q01DX009 (ip), vehicle: saline
  T/C: 113 % of control and 159 % of control
